# According to PubChem BioAssay AID463173 (ICCB-Longwood Screening Facility, Harvard Medical School, 2010):
# Screen size: about 52,000 compounds; about 4,300 (8.3%) were called active. Rule as the data show it: active = survival mostly below about 52% (no sharp cut-off); inactive = mostly above about 56%. The list shows a part of the results.
# Tested on: DeltatarO mutant
# Test: growth inhibition of S. aureus wild type versus tarO mutant, primary screen, teichoic acid synthesis inhibitors, RN4220, OD600 (AID 463173)
# Conditions: OD600, 18 h, stronger effect = lower value, screened at 18.75 µg/mL (by protocol)
row,Compound,survival
1,C=CCn1c(O)c(CN2CCN(Cc3ccccc3)CC2)c(C)c(C#N)c1=O,inactive: 88%
2,CCC1=Nc2cc(C(=O)NCC(C)c3ccccc3)ccc2Sc2ccc(C)cc21 (stereo not drawn),inactive: 57%
3,Cc1ccc(CCNC(=O)c2cn(C)c3ccc(S(=O)(=O)N(C)C4CCCCC4)cc3c2=O)cc1,inactive: 87%
4,CCOC(=O)Cn1c(=O)n(CC2CCCO2)c2nc(-c3ccccc3F)nc(C(N)=O)c21 (stereo not drawn),inactive: 90%
5,Cc1cccc(NC(=O)c2cc(S(=O)(=O)NCc3ccc4c(c3)OCO4)ccc2F)c1C,inactive: 95%
6,Cc1ccc(Cn2cc(C(=O)c3ccc(F)cc3)c(=O)c3cc4c(cc32)OCO4)cc1,inactive: 56%
7,COc1ccc(CNS(=O)(=O)c2cc3c(cc2C)N(C)CCO3)cc1,inactive: 98%
8,COc1cccc(CSc2nnc(-c3ccc(F)cc3)o2)c1,inactive: 90%
9,C=C(C)c1cccc(C(C)(C)NC(=O)NCc2cccnc2)c1,inactive: 107%
10,CCOC(=O)Cn1nc(-c2ccccc2)c2cnc3ccc(OCC)cc3c21,inactive: 109%
11,Cc1oc(-c2cccc(Cl)c2)nc1CN1CCC(C(=O)NCCCN2CCN(c3ccccc3F)CC2)CC1,inactive: 69%
12,O=C(CN(CCc1ccccc1)S(=O)(=O)c1ccc(Br)cc1)NCc1ccc(Cl)cc1,inactive: 123%
13,CCC1CN(C(=O)C2CCN(S(=O)(=O)c3c(C)noc3/C=C/c3ccccc3F)CC2)c2cc(Cl)ccc2O1 (stereo not drawn),inactive: 94%
14,COc1ccc(N(Cc2cccs2)C(=O)c2ccc(Br)o2)cc1,inactive: 64%
15,Cc1ccc(-c2nc3ccccc3s2)cc1NC(=O)COc1ccccc1,inactive: 54%
16,CCOc1ccc(/C=C/c2nc(C#N)c(N3CCCCC3)o2)cc1,inactive: 52%
17,CCOC(=O)c1cccc(NC(=O)CCc2c(C)nn(-c3ccc(N4CCCC4)nn3)c2C)c1,inactive: 93%
18,Cc1ccc(OCC(=O)NCC2(N3CCOCC3)CCCCC2)cc1C,inactive: 101%
19,CCCCN(CCCC)CCNC(=O)c1cn(CC)c2ccc(S(=O)(=O)N3CCc4ccccc4C3)cc2c1=O,inactive: 74%
20,CCCN(CCC)CCNC(=O)CN1C(=O)COc2ccc(S(=O)(=O)N3CCC(C)CC3)cc21,inactive: 99%

row,Compound,survival
1,COC(=O)C1C(O)=C(C=Nc2ccccc2)C(=O)CC1(C)C (stereo not drawn),inactive: 111%
2,CCOc1cc(C2C(C(=O)Nc3ccc(OC)cc3)=C(C)Nc3nc(SC)nn32)ccc1O (stereo not drawn),inactive: 160%
3,O=C(C1CCN(c2ncnc3c2nc2n3CCCCC2)CC1)N1CCN(c2ccc(F)cc2)CC1,active: -1%
4,CC(=O)N1C(O)CCN1c1ccccc1 (stereo not drawn),inactive: 69%
5,COc1ccc(NC(=O)C2CCCN(S(=O)(=O)c3ccc4c(c3)CCCC(=O)N4)C2)cc1OC (stereo not drawn),inactive: 88%
6,Cc1ccc2c(=O)cc(C(=O)Nc3ccc(S(=O)(=O)Nc4nc(C)cc(C)n4)cc3)oc2c1,inactive: 78%
7,CCc1cc2c(=O)n(-c3ccccc3)cnc2s1,inactive: 73%
8,COCCNC(=O)CSc1cn(CC(=O)N2CCCCCC2)c2ccccc12,inactive: 73%
9,CC1CC(CN)CC(CO)C1 (stereo not drawn),inactive: 84%
10,Cc1nn(C)cc1C(C(=O)NC1CCCCC1)N(CCc1ccccc1)C(=O)c1cnccn1 (stereo not drawn),inactive: 97%
11,CCOc1ccc(OCC)c(NC(=O)C2CCN(S(=O)(=O)c3cn(C)cn3)CC2)c1,inactive: 117%
12,CSc1ccc(CCNC(=O)Cn2ncc3c(=O)oc4ccccc4c32)cc1,inactive: 73%
13,CCC(Sc1ncnc2sc3c(c12)CCCC3)C(=O)OC(C)C (stereo not drawn),active: -7%
14,CCc1ccc(NC(=O)Cn2c(=O)n(Cc3nc(-c4ccccc4)no3)c(=O)c3cc4c(cc32)OCO4)cc1,inactive: 97%
15,COc1ccc(S(=O)(=O)N2CCC(c3ccncc3)CC2)cc1OC,inactive: 108%
16,O=C(c1ccco1)n1nc(-c2ccc(Cl)cc2)nc1NCc1ccccc1,inactive: 74%
17,Cc1ccc(N2C(=O)NC(NS(=O)(=O)c3ccc(Cl)cc3)(C(F)(F)F)C2=O)cc1C (stereo not drawn),inactive: 76%
18,C/C=N/N(c1ccccc1)c1ccccc1,inactive: 83%
19,COc1ccc(CC(=O)NC2CCN(S(=O)(=O)c3ccccc3C(=O)O)CC2)cc1OC,inactive: 77%
20,COc1ccc(S(=O)(=O)NCC(c2ccc(N(C)C)cc2)N2CCc3ccccc32)cc1 (stereo not drawn),inactive: 78%

row,Compound,survival
1,Cc1cccc(C(=O)Nc2ccc(C(=O)OCc3cc(=O)n4nc(C5CC5)sc4n3)cc2)c1,inactive: 84%
2,COc1ccccc1N1CCN(C(=O)CCc2nnc3n(C)c(=O)c4sccc4n23)CC1,inactive: 155%
3,CCCCC(=O)OC1=C(C(C)=O)N(Cc2ccccc2)S(=O)(=O)c2ccccc21,inactive: 67%
4,COc1ccc(OC)c(Nc2ncnc3c2cnn3-c2cccc(Cl)c2)c1,inactive: 76%
5,Cc1ccn2c(Nc3ccc(F)cc3)c(-c3ccccn3)nc2c1,inactive: 105%
6,O=C(O)CN1CC(=O)NC1=O,inactive: 95%
7,O=C(Nc1c(O)c2ccccc2oc1=O)c1cccc(F)c1,inactive: 93%
8,CCc1ccccc1NC(=O)Cc1cn(C)c2ccccc12,inactive: 86%
9,CCOc1ccc(S(=O)(=O)Nc2cccc(C)c2)c2cccnc12,inactive: 100%
10,CCNC(=O)c1c(NC(=O)Cc2coc3cc(C)ccc23)sc2c1CCCC2,inactive: 71%
11,CCn1c(C(=O)NCc2ccc(OC)cc2)cc2sc(Cl)cc21,active: 41%
12,CCn1cc(C(=O)N2CCN(c3ccccc3)CC2)c(=O)c2cc(S(=O)(=O)N3CCCC3)ccc21,inactive: 84%
13,CCC(=O)N1CCc2cc(CNC(=O)Nc3cc(C)ccc3C)ccc21,inactive: 84%
14,Oc1c(C(c2ccccc2Cl)N2CCOCC2)sc2nc(-c3ccco3)nn12 (stereo not drawn),active: 0%
15,Cc1cccc(CNC(=O)CN2C(=O)C3CCCCN3c3ccc(C(=O)N4CCCC4)cc32)c1 (stereo not drawn),inactive: 101%
16,COc1ccc(CCN2C(=O)CN=C2Nc2ccc(F)cc2)cc1OC,inactive: 78%
17,Cc1ccc(-c2nnc(Nc3ccc(Cl)c(Cl)c3)c3ccccc23)cc1S(=O)(=O)N(C)C,inactive: 75%
18,Cc1ccc(C(=O)N2CCN(c3ccc(F)cc3)CC2)cc1NC(=O)c1nsc2ccccc12,inactive: 94%
